From the supplement of paper PMC12217912
Some of the results follow. The full chains were built here from the parent and the listed change. Inactive controls read about 0.05.

B1: TEV protease; numbered along this chain (parent)
chain: MGESLFKGPRDYNPISSSICHLTNESDGHTTSLYGIGFGPFIITNKHLFRRNNGTLVVQSLHGVFKVKDTTTLQQHLVDGRDMIIIRMPKDFPPFPQKLKFREPQREERICLVTTNFQTKSMSSMVSDTSCTFPSGDGIFWKHWIQTKDGQCGSPLVSTRDGFIVGIHSASNFTNTNNYFTSVPKNFMELLTNQEAQQWVSGWRLNADSVLWGGHKVFMVKPEEPFQPVKEATQL

Variants of: B1
Test: raw area under fraction-flipped curve 0-4 h after induction (AUC4h, not background-subtracted), DNA-recorder readout of cleavage of the substrate (dimensionless); higher = more cleavage of the substrate by the protease variant
Conditions: temperature: 34 °C; time window: 0-4 h after rhamnose induction
Experimental: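 In vivo DNA recorder in E. coli TOP10(DE3) ΔrhaA at 34 °C. Each TEVp single-site mutant (parent TEVp 0) is paired with a single-site variant of the 7-mer TEVs (canonical ENLYFQ|S). The substrate sits between flexible linkers in a Bxb1-sfGFP-TEVs-SsrA fusion, so cleavage stabilises Bxb1 and speeds flipping of a recombination array, read by NGS. The value is the raw area under the fraction-flipped curve over 0-4 h after rhamnose induction (AUC4h), with ≥20 reads per time point. It is not background-subtracted; inactive controls average about 0.047.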
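Further: Bxb1 expression induced with 0.2% (w/v) L-rhamnose at OD600 near 0.5, cultures sampled hourly, flipped fraction per protease–substrate barcode pair counted by paired-end Illumina sequencing.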

Variant | area with substrate CNLYFQS | area with substrate GNLYFQS | area with substrate HNLYFQS | area with substrate INLYFQS | area with substrate LNLYFQS | area with substrate NNLYFQS | area with substrate PNLYFQS | area with substrate SNLYFQS | area with substrate TNLYFQS | area with substrate VNLYFQS | area with substrate WNLYFQS | area with substrate MNLYFQS | area with substrate FNLYFQS | area with substrate KNLYFQS | area with substrate QNLYFQS | area with substrate RNLYFQS | area with substrate YNLYFQS
MGESLFKGPRDYNPISSSICHLTNESDGHTTSLYGIGFGPFIITNKHLFRRNNGTLVVQSLHGVFKVKDTTTLQQHLVDGGDMIIIRMPKDFPPFPQKLKFREPQREERICLVTTNFQTKSMSSMVSDTSCTFPSGDGIFWKHWIQTKDGQCGSPLVSTRDGFIVGIHSASNFTNTNNYFTSVPKNFMELLTNQEAQQWVSGWRLNADSVLWGGHKVFMVKPEEPFQPVKEATQL [R81G] | 0.0787 | 0.0638 | 0.0661 | 0.0613 | 0.0645 | 0.0565 | 0.0776 | 0.0649 | 0.0339 | 0.0627 | 0.0626 | – | – | – | – | – | –
MGESLFKGPRDYNPISSSICHLTNESDGHTTSLYGIGFGPFIITNKHLFRRNNGTLVVQSLHGVFKVKDTTTLQQHLVDGIDMIIIRMPKDFPPFPQKLKFREPQREERICLVTTNFQTKSMSSMVSDTSCTFPSGDGIFWKHWIQTKDGQCGSPLVSTRDGFIVGIHSASNFTNTNNYFTSVPKNFMELLTNQEAQQWVSGWRLNADSVLWGGHKVFMVKPEEPFQPVKEATQL [R81I] | 0.0623 | – | 0.064 | 0.0531 | 0.0678 | 0.0757 | 0.0607 | 0.0686 | 0.0657 | 0.0787 | – | 0.0611 | – | – | – | – | –
MGESLFKGPRDYNPISSSICHLTNESDGHTTSLYGIGFGPFIITNKHLFRRNNGTLVVQSLHGVFKVKDTTTLQQHLGDGRDMIIIRMPKDFPPFPQKLKFREPQREERICLVTTNFQTKSMSSMVSDTSCTFPSGDGIFWKHWIQTKDGQCGSPLVSTRDGFIVGIHSASNFTNTNNYFTSVPKNFMELLTNQEAQQWVSGWRLNADSVLWGGHKVFMVKPEEPFQPVKEATQL [V78G] | 0.0536 | – | 0.0472 | – | 0.0668 | 0.0609 | 0.0567 | 0.0521 | 0.067 | – | 0.059 | 0.0479 | 0.0559 | 0.0884 | – | – | –
MGESLFKGPRDYNPISSSICHLTNESDGHTTSLYGIGFGPFIITNKHLFRRNNGTLVVQSLHGVFKVKDTTTLQQHLADGRDMIIIRMPKDFPPFPQKLKFREPQREERICLVTTNFQTKSMSSMVSDTSCTFPSGDGIFWKHWIQTKDGQCGSPLVSTRDGFIVGIHSASNFTNTNNYFTSVPKNFMELLTNQEAQQWVSGWRLNADSVLWGGHKVFMVKPEEPFQPVKEATQL [V78A] | 0.0688 | 0.0638 | 0.0588 | – | 0.0616 | – | 0.061 | 0.0677 | 0.0498 | – | 0.0535 | 0.0813 | 0.0624 | 0.0557 | 0.0654 | 0.071 | –
MGESLFKGPRDYNPISSSICHLTNESDGHTTSLYGIGFGPFIITNKHLFRRNNGTLVVQSLHGVFKVKDTTTLQQHLVDHRDMIIIRMPKDFPPFPQKLKFREPQREERICLVTTNFQTKSMSSMVSDTSCTFPSGDGIFWKHWIQTKDGQCGSPLVSTRDGFIVGIHSASNFTNTNNYFTSVPKNFMELLTNQEAQQWVSGWRLNADSVLWGGHKVFMVKPEEPFQPVKEATQL [G80H] | 0.0639 | – | – | 0.073 | 0.059 | 0.0598 | 0.0559 | 0.061 | 0.0648 | 0.066 | 0.0643 | 0.0605 | 0.0733 | 0.0781 | – | – | 0.0488
MGESLFKGPRDYNPISSSICHLTNESDGHTTSLYGIGFGPFIITNKHLFRRNNGTLVVQSLHGVFKVKDTTTLQQHLVLGRDMIIIRMPKDFPPFPQKLKFREPQREERICLVTTNFQTKSMSSMVSDTSCTFPSGDGIFWKHWIQTKDGQCGSPLVSTRDGFIVGIHSASNFTNTNNYFTSVPKNFMELLTNQEAQQWVSGWRLNADSVLWGGHKVFMVKPEEPFQPVKEATQL [D79L] | 0.0817 | – | 0.0704 | 0.0576 | – | 0.0733 | 0.0656 | 0.0843 | – | 0.0603 | 0.0636 | 0.0769 | – | – | – | – | 0.0596
MGESLFKGPRDYNPISSSICHLTNESDGHTTSLYGIGFGPFIITNKHLFRRNNGTLVVQSLHGVFKVKDTTTLQQHLVGGRDMIIIRMPKDFPPFPQKLKFREPQREERICLVTTNFQTKSMSSMVSDTSCTFPSGDGIFWKHWIQTKDGQCGSPLVSTRDGFIVGIHSASNFTNTNNYFTSVPKNFMELLTNQEAQQWVSGWRLNADSVLWGGHKVFMVKPEEPFQPVKEATQL [D79G] | 0.0704 | – | 0.0465 | 0.062 | 0.0649 | – | 0.0631 | 0.06 | 0.0505 | – | 0.0518 | 0.092 | 0.0694 | – | – | – | –
MGESLFKGPRDYNPISSSICHLTNESDGHTTSLYGIGFGPFIITNKHLFRRNNGTLVVQSLHGVFKVKDTTTLQQHLVVGRDMIIIRMPKDFPPFPQKLKFREPQREERICLVTTNFQTKSMSSMVSDTSCTFPSGDGIFWKHWIQTKDGQCGSPLVSTRDGFIVGIHSASNFTNTNNYFTSVPKNFMELLTNQEAQQWVSGWRLNADSVLWGGHKVFMVKPEEPFQPVKEATQL [D79V] | 0.0742 | 0.0461 | 0.0665 | 0.0726 | 0.0636 | 0.0689 | 0.0608 | 0.0773 | 0.0666 | 0.0689 | – | – | 0.0546 | 0.0538 | – | 0.0611 | 0.062
MGESLFKGPRDYNPISSSICHLTNESDGHTTSLYGIGFGPFIITNKHLFRRNNGTLVVQSLHGVFKVKDTTTLQQELVDGRDMIIIRMPKDFPPFPQKLKFREPQREERICLVTTNFQTKSMSSMVSDTSCTFPSGDGIFWKHWIQTKDGQCGSPLVSTRDGFIVGIHSASNFTNTNNYFTSVPKNFMELLTNQEAQQWVSGWRLNADSVLWGGHKVFMVKPEEPFQPVKEATQL [H76E] | 0.0789 | 0.0647 | 0.0654 | 0.0566 | 0.0574 | 0.0593 | 0.07 | 0.0529 | 0.0768 | 0.0558 | 0.0631 | 0.0584 | – | 0.0685 | – | – | 0.0666
MGESLFKGPRDYNPISSSICHLTNESDGHTTSLYGIGFGPFIITNKHLFRRNNGTLVVQSLHGVFKVKDTTTLQQHTVDGRDMIIIRMPKDFPPFPQKLKFREPQREERICLVTTNFQTKSMSSMVSDTSCTFPSGDGIFWKHWIQTKDGQCGSPLVSTRDGFIVGIHSASNFTNTNNYFTSVPKNFMELLTNQEAQQWVSGWRLNADSVLWGGHKVFMVKPEEPFQPVKEATQL [L77T] | 0.0633 | – | – | – | 0.0665 | 0.0463 | 0.0601 | – | 0.065 | – | 0.0528 | – | – | – | 0.0328 | – | 0.0535
